Experimental data published in PubChem BioAssay AID485344 (National Center for Advancing Translational Sciences (NCATS), 2010).
Among all 340,000 compounds or so, about 6,900 (2%) were called active. No stated cut-off is given here; in the data, active means inhibition above about 30%; inactive means below that, where a call was filed. This is a selection; strong and weak results do not stand in their true shares. Where no call is shown, the source filed none.

These compounds were tested against D(2) dopamine receptor (Homo sapiens) (UniProt P14416) (assay: HTS Assay for Allosteric Antagonists of the Human D2 Dopamine Receptor: Primary Screen for Antagonists). Settings: HEK293 TREx D2 cells, calcium flux, dopamine EC80; at 10 µM; stronger effect = higher value.
How it was run: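 HEK293 T-REx D2 cells, tet-induced, calcium dye no-wash. Cpd pintool add, 180 s kinetic, then EC80 DA, 180 s kinetic. Ca flux read.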
Further: 0% is about no effect.

UniProt P14416, sequence (P14416 whole entry, looked up): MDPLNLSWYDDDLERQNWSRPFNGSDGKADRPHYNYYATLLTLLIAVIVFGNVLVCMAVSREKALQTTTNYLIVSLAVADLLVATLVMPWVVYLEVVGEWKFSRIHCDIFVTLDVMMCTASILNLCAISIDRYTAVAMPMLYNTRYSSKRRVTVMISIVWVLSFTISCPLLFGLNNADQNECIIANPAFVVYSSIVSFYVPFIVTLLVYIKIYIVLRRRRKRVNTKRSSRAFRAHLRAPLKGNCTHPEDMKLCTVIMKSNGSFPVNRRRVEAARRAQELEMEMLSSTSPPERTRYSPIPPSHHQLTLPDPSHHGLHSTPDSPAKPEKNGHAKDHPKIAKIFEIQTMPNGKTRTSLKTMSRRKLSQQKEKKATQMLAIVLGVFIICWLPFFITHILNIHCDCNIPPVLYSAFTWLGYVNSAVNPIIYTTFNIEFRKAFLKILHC

| Compound | inhibition |
| --- | --- |
| CCCSc1ncc(Cl)c(C(=O)N(Cc2ccccc2)c2ccc(OC)cc2)n1 | 5.87% |
| CCc1cnc2c(c1SCC(=O)NCc1ccc(C)cc1)c(=O)n(C)c(=O)n2C | 7.28% |
| CCOC(=O)c1c(C)oc2nc(C)nc(NCC3CCN(Cc4cc(C)ccc4C)CC3)c12 | -13.3% |
| Cc1ccc(N2C(=O)C(CC(=O)Nc3cccc(F)c3)N(CCc3ccccc3F)C2=O)cc1 (stereo unspecified) | -2.03% |
| CCCN(C(=O)CCc1nc(-c2ccc(C)cc2)no1)c1ccc(OCC)cc1 | -8.42% |
| COc1cccc(/C=C/c2nc(C#N)c(NC3CCCCC3)o2)c1 | 1.02% |
| CSc1ccc(CCNC(=O)Cn2c(C)c3cnn(-c4ccccc4)c(=O)c3c2C)cc1 | 0.513% |
| COc1cccc(-n2c(=O)c3sc4ccccc4c3n(Cc3c(F)cccc3Cl)c2=O)c1 | -3.89% |
| Cc1ccc(-n2nc(CO)c(C(=O)NCCC(C)C)n2)cc1C | -6.21% |
| CCc1cccc(NC(=O)CSc2nnc(-c3cc4occc4n3C)n2-c2ccccc2C)c1 | -4.56% |
| COc1ccc(N(CC(=O)N2CCc3ccccc3C2)S(=O)(=O)c2ccccc2)cc1 | 9.43% |
| COc1cc(O)c(C(CCN2CCN(c3ccccc3)CC2)c2cc(OC)c(OC)c(OC)c2)c(OC)c1 (stereo unspecified) | active: 67.1% |
| COc1ccccc1C1C(C(=O)N2CCCCC2)=C(C)Nc2nc3ccccc3n21 (stereo unspecified) | -3.7% |
| CCOC(=O)c1nnn(C(CC)C(=O)Nc2ccc(F)cc2)c1C(=O)OCC (stereo unspecified) | 17.7% |
| O=C(NCC1CCOCC1)c1ccc2nc(Cc3cccc(Cl)c3)oc2c1 | active: 61.1% |
| COc1ccc2c(c1)-c1nc(NC(=O)c3cccc(Br)c3)sc1CC2 | 12.9% |
| Cc1ccc(Nc2c3c(nc4nncn24)CCC3)c(C)c1 | 16.3% |
| Cc1ccc(NC(=O)CN2C(=O)c3cccnc3Sc3ccccc32)c(Br)c1 | -3.13% |
| Cc1ccc(NC(=O)Cn2nnc(-c3ccccc3)n2)c(C)c1 | -11.8% |
| CCOC(=O)c1c(NC(=O)c2cc(-c3cccc(Cl)c3)on2)sc(C(C)=O)c1C | -19.8% |
| O=C(C1COc2ccccc2O1)N(Cc1cccnc1)c1nc2c(F)cccc2s1 (stereo unspecified) | 25.2% |
| CC1CCN(S(=O)(=O)c2cc(C(=O)N3CCN(c4cccc(Cl)c4)CC3)n(C)c2)CC1 | -2.17% |
| O=C(c1ccc(N2C(=O)CCC2=O)cc1)N1CCOCC1 | active: 53.1% |
| Cc1cc(C)c2c(=O)cc(C(=O)Nc3sc4c(c3C(=O)NCc3ccco3)CCCC4)oc2c1 | -24.1% |
| Cc1cccc(OCC(=O)N2CCC(c3nc4ccccc4o3)CC2)c1C | 6.37% |
| COCCNC(=S)N(CCc1c(C)[nH]c2ccc(C)cc12)Cc1cc(OC)c(OC)c(OC)c1 | active: 31.3% |

| Compound | inhibition |
| --- | --- |
| COc1ccc(NC(=O)Cn2c(=O)c3ccccc3n3nncc23)cc1Cl | -20.7% |
| CN(c1nnc(NC(=O)Nc2ccccc2C(F)(F)F)s1)C1CCCCC1 | 9.54% |
| COCc1cc(C)nc2c1C(=O)NC(c1ccc(NC(C)=O)cc1)N2Cc1ccccc1 (stereo unspecified) | 5.68% |
| CC(=O)c1ccc(NC(=O)c2nc(-c3ccc(Cl)cc3)n3c2CCCCC3)cc1 | -19% |
| COc1cccc(OCC(=O)NC2CC(=O)N(c3cccc(OC)c3)C2)c1 (stereo unspecified) | -5.39% |
| COC(=O)c1cc(NC(=O)CC2C(=O)OCCN2Cc2ccccc2)cc(C(=O)OC)c1 (stereo unspecified) | -7.69% |
| Cc1ccccc1CSc1nc2c(sc3ccccc32)c(=O)n1CCCC(=O)NCCCOC(C)C | -1.97% |
| CCOc1nc(-c2ccccc2)ccc1-c1noc(-c2ccc(C)cc2)n1 | 14.1% |
| O=C(Cn1cc(SCc2cccc(Cl)c2)c2ccccc21)N1CCCCC1 | -3.05% |
| CCOc1ccc(NC(=O)CC2C(=O)N(c3ccccc3)C(=O)N2CCc2sccc2C)cc1 (stereo unspecified) | 9.42% |
| Cc1c(C(=O)OC2CCC(C)CC2)[nH]c2c1C(=O)CC(c1ccc(N(C)C)cc1)C2 (stereo unspecified) | 5.27% |
| COc1ccc(S(=O)(=O)c2c(C(=O)c3ccc(C)c(C)c3)cnc3ccc(C)cc23)cc1 | -2.31% |
| COc1ccc(C)cc1NC(=O)NCCC1=CCCCC1 | active: 85.8% |
| COc1ccc(/C=C/c2nc(C#N)c(NCc3ccc(C)cc3)o2)cc1OC | -1.38% |
| Cc1c2cnn(CC(=O)NC(C)C)c(=O)c2c(C)n1Cc1cccc(Cl)c1 | -2.54% |
| Cc1ccc(NC(=O)N2CCC3(CC2)Oc2ccccc2C(=O)N3Cc2ccc(F)cc2)cc1 | 1.92% |
| CCNC(=O)c1ccc2c(c1)sc1nc(-c3cccc(OC)c3)cn12 | -11.8% |
| COc1ccc2c(c1OC)C(=O)N1c3ccccc3C(=O)N(c3ccc(F)cc3)C21 (stereo unspecified) | active: 40.6% |
| Cc1cc(C)c2oc(C(=O)Nc3ccc(S(=O)(=O)Nc4ncccn4)cc3)cc(=O)c2c1 | 1.63% |
| O=C(CCCn1ncn2c(cc3occc32)c1=O)NCc1ccccc1F | -0.992% |
| Cc1cc2c(cc1S(=O)(=O)C(C)CC(=O)NC1CCC(C)CC1)OCC(=O)N2 (stereo unspecified) | -2.3% |
| O=C(Nc1ccccc1C(F)(F)F)c1cc2nc(-c3ccccc3)cc(-c3ccccc3)n2n1 | -0.962% |
| COc1ccccc1NC(=O)c1sc(-c2ccc(Cl)cc2)cc1N | -26.4% |
| CCc1ccc2c(c1)NC(c1ccc(F)cc1)=NC(c1ccncc1)=N2 | 8.43% |
| COc1ccc2c(c1)c(CC(=O)Nc1cc(C)cc(C)c1)c(C)n2C(=O)c1ccc(Cl)cc1 | 7.13% |
